± gives the uncertainty stated by the source. Further values from the same series stand in other lists.
Test system: A375
Assay: pERK immunofluorescence, normalised; higher = more ERK phosphorylation
Settings: vemurafenib 1 µM, drug treatment time 24 h
Protocol: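 A375 or A375 CRISPRa-EGFR (A375_Cra_F7_5/13) cells were adapted for 24 h to a cobimetinib dose series, with or without 1 uM vemurafenib, then stimulated with EGF (100 ng/mL) or mock medium and fixed at the indicated times. pERK was measured by immunofluorescence as the population mean normalised to baseline, with the SD of technical replicates (n=2).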

O=C(c1ccc(F)c(F)c1Nc1ccc(I)cc1F)N1CC(O)([C@@H]2CCCCN2)C1 [cobimetinib]
pERK immunofluorescence
Settings | cobimetinib 31.62 pM | cobimetinib 0.0001 µM | cobimetinib 0.000316228 µM | cobimetinib 0.001 µM | cobimetinib 0.003162278 µM | cobimetinib 0.01 µM | cobimetinib 0.031622777 µM | cobimetinib 0.1 µM | cobimetinib 0.316227766 µM | cobimetinib 1 µM
EGF 0 ng/mL, time after EGF/mock 0.083 h | 0.1497 ± 0.00093 | 0.149 ± 0.0015 | 0.151 ± 0.0023 | 0.1456 ± 0.00082 | 0.14 ± 0.0026 | 0.1333 ± 0.00017 | 0.1278 ± 0.00036 | 0.126 ± 0.00046 | 0.1264 ± 0.00095 | 0.128 ± 0.00036
EGF 0 ng/mL, time after EGF/mock 0.5 h | 0.1474 ± 0.0014 | 0.1461 ± 0.0003 | 0.1464 ± 0.00024 | 0.144 ± 0.0017 | 0.138 ± 0.0033 | 0.1353 ± 0.00053 | 0.1297 ± 0.00015 | 0.1273 ± 0.0012 | 0.12575 ± 5.1e-05 | 0.1268 ± 0.001
EGF 0 ng/mL, time after EGF/mock 2 h | 0.139 ± 0.0024 | 0.1374 ± 0.00026 | 0.1398 ± 0.00094 | 0.136 ± 0.0015 | 0.1315 ± 0.0011 | 0.131 ± 0.0054 | 0.1256 ± 0.00044 | 0.12311 ± 9.7e-05 | 0.12274 ± 0.00011 | 0.1237 ± 0.00035
EGF 0 ng/mL, time after EGF/mock 8 h | 0.12 ± 0.0014 | 0.1206 ± 0.00023 | 0.1191 ± 0.00031 | 0.122 ± 0.0066 | 0.1137 ± 0.00094 | 0.113 ± 0.0032 | 0.10705 ± 1.1e-05 | 0.1046 ± 0.00027 | 0.1042 ± 0.0002 | 0.1046 ± 0.0005
EGF 0 ng/mL, time after EGF/mock 24 h | 0.107 ± 0.0012 | 0.1082 ± 0.0008 | 0.106 ± 0.002 | 0.1066 ± 0.00089 | 0.106 ± 0.0012 | 0.108 ± 0.0015 | 0.107 ± 0.0033 | 0.105 ± 0.0076 | 0.09831 ± 0.0002 | 0.0983 ± 0.0019
EGF 100 ng/mL, time after EGF/mock 0.083 h | 1.64 ± 0.02 | 1.65 ± 0.008 | 1.6 ± 0.1 | 1.58 ± 0.051 | 1.64 ± 0.04 | 1.59 ± 0.083 | 1.38 ± 0.026 | 0.844 ± 0.015 | 0.188 ± 0.01 | 0.1335 ± 0.0002
EGF 100 ng/mL, time after EGF/mock 0.5 h | 0.6651 ± 0.0043 | 0.654 ± 0.0086 | 0.6125 ± 0.00092 | 0.555 ± 0.013 | 0.508 ± 0.0077 | 0.426 ± 0.022 | 0.33 ± 0.0039 | 0.275 ± 0.007 | 0.2886 ± 0.00096 | 0.1332 ± 0.0011
EGF 100 ng/mL, time after EGF/mock 2 h | 0.1938 ± 0.0015 | 0.19537 ± 9.1e-05 | 0.1902 ± 0.00052 | 0.1734 ± 0.0011 | 0.1506 ± 0.0015 | 0.13666 ± 0.00012 | 0.1275 ± 0.00018 | 0.125 ± 0.0019 | 0.123 ± 0.00056 | 0.1234 ± 0.0012
EGF 100 ng/mL, time after EGF/mock 8 h | 0.164 ± 0.0024 | 0.165 ± 0.0065 | 0.1586 ± 0.00052 | 0.153 ± 0.003 | 0.142 ± 0.0012 | 0.128 ± 0.0022 | 0.115 ± 0.0014 | 0.1075 ± 0.00075 | 0.1043 ± 0.00022 | 0.10438 ± 5.4e-05
EGF 100 ng/mL, time after EGF/mock 24 h | 0.121 ± 0.0026 | 0.121 ± 0.0014 | 0.119 ± 0.0033 | 0.116 ± 0.0015 | 0.1125 ± 0.00065 | 0.1074 ± 0.00065 | 0.1101 ± 0.0011 | 0.106 ± 0.00019 | 0.1031 ± 0.00082 | 0.096898 ± 9.6e-05
